This data set deals with the molecule itself. Nature of the data set: crystal structure.

These results are taken from publication PMC3941021 (Nature structural & molecular biology, 2013).

B1: lysine-methylated EphA4 ectodomain (EphA4_(ecto)), human (domain or fragment)
chain: not shown
modifications: lysine-methylated
Consider B1, for which the binding result is on record as “binds”.
